About 14,000 (4.5%) of roughly 310,000 compounds showed an effect of 50% or more. The effect is printed as a negative number. Some of the results follow.
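Also: peak tail current of the secondary pulse compared with the same well before compound.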

The target of this experiment is human ether-à-go-go-related gene (hERG) potassium channel (human, UniProt Q12809). Briefly: primary screen, population patch clamp on CHO cells stably expressing hERG.
Chain of human ether-à-go-go-related gene (hERG) potassium channel (Q12809 whole entry, looked up): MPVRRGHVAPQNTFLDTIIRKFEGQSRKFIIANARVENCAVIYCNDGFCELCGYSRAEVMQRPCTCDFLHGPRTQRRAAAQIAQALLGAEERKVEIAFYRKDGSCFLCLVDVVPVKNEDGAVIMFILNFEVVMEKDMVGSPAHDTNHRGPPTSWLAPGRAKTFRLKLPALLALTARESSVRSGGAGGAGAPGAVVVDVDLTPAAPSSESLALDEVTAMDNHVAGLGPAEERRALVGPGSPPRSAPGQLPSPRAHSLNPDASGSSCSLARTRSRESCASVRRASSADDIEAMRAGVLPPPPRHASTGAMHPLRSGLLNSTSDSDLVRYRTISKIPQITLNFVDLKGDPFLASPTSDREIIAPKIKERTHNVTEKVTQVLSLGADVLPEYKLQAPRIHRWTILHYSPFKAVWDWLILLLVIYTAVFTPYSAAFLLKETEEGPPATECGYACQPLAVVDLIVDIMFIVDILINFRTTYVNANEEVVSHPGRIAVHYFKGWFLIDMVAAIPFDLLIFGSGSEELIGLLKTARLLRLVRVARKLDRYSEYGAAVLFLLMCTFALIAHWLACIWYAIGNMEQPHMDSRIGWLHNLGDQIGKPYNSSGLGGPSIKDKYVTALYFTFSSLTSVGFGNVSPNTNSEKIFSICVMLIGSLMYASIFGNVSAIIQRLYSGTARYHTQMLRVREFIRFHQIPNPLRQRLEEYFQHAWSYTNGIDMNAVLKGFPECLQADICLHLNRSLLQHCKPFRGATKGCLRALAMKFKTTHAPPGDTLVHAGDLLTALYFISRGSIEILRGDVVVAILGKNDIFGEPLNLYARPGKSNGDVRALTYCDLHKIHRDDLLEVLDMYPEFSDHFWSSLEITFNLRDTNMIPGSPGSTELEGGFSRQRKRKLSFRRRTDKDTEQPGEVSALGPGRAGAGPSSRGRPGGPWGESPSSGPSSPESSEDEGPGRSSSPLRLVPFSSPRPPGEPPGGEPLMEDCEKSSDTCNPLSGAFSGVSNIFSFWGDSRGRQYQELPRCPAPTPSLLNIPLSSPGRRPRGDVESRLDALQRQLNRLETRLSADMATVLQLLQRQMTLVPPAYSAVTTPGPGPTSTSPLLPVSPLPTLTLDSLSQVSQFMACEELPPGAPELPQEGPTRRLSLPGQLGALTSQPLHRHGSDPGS
As for `COc1cc(C2CC(=O)Oc3c(C(CCN4CCN(c5ccccc5)CC4)c4ccc(N(C)C)cc4)c(OC)cc(OC)c32)cc(OC)c1OC` (stereo not shown), the “hERG current change (%, negative = inhibition) at 10uM” value came to 4.8%.
The value for `COc1cc(C(=O)Nc2ccc(S(=O)(=O)Nc3nccc(C)n3)cc2)cc(OC)c1OC` was 12.9%; that for `CC(=O)c1cc(NC(=O)c2cccc(C(F)(F)F)c2)c(=O)oc1/C=C/N(C)C` was -6.48%; that for `Cc1c(C)n(CCc2ccccc2)c2ncnc(NN)c12` was -29.6%.
With `CN(Cc1c(O)ccc2c1oc(=O)c1ccccc12)C1CCCCC1`, the “hERG current change (%, negative = inhibition) at 10uM” value is given as -42.8%.
In the case of `CCOC(=O)C1C(=O)C=C(c2ccc(C)cc2)CC1c1ccco1` (stereo not shown) it was 5.34%; in that of `Cc1cc(NS(=O)(=O)c2ccc(NC(=O)CCCOc3ccccc3)cc2)no1`, 14.5%.
The value for `COc1cc(CN2CC(=O)N(c3ccc(C)c(Cl)c3)C2=S)cc(OC)c1OC` was 14.3%; that for `COc1ccc(C(=O)Nc2ccc(NC(=O)c3cccc(OC)c3)cn2)cc1` was 16.8%.
The value for `CN(C)C(Cc1ccccc1)C(=O)c1ccc(-c2ccccc2)cc1.Cl` (stereo not shown) was 13.2%; that for `Cc1cc(Cl)c2oc(C(=O)N(CCO)Cc3ccccc3)c(C)c2c1` was 9.92%.
In the case of `Nc1ncnc(Nc2ccccc2C(F)(F)F)n1`, the “hERG current change (%, negative = inhibition) at 10uM” value was 8.45%.
The value for `CC1=NN(C(=O)c2ccc(Cl)cc2)C(O)(c2ccccc2)C1` (stereo not shown) was 22%.
For `NS(=O)(=O)c1ccc(CCNC(=O)c2nc(CS(=O)(=O)c3ccc(Cl)cc3)no2)cc1`, the “hERG current change (%, negative = inhibition) at 10uM” value is given as -7.88%.
In the case of `CC(OC(=O)c1cccc([N+](=O)[O-])c1)C(=O)NCc1ccc2c(c1)OCO2` (stereo not shown) it was -11.4%; in that of `O=C(NCCN1CCN(c2ccccc2)CC1)C1CCN(S(=O)(=O)c2cccc3nsnc23)CC1`, 12.8%; in that of `Cc1c(C(C)(C)C)c(C=S)n2ccccc12`, -12%.
With `CC(C)(C)OC(=O)N[C@@H](COCc1ccccc1)C(=O)N[C@@H](CO)[C@H](O)[C@@H]1C[C@@H]1C(=O)N1CCCC1`, the “hERG current change (%, negative = inhibition) at 10uM” value turned out to be 8.14%.
On to `Cc1cc(NC(=O)CN(C)S(=O)(=O)c2cnc[nH]2)ccc1Br`, for which the “hERG current change (%, negative = inhibition) at 10uM” value turned out to be 11.3%.
In the case of `COC(=O)c1ccccc1NS(=O)(=O)c1c(C)noc1C` it was -0.0399%; in that of `CCC1CCCCN1C(=O)c1ccc2c(c1)C(=O)N(c1ccc(C)cc1)C2=O` (stereo not shown), -8.83%.
In the case of `COc1ccc([N+](=O)[O-])cc1NC(=O)N(C)Cc1ccco1` it was 3.39%; in that of `CC(C)c1cccc(C(C)C)c1NC(=O)COC(=O)[C@H](C)NC(N)=O`, 16.8%; in that of `COc1cc(CNCCc2ccc3c(c2)OCO3)ccc1O.Cl`, -6.17%.
The value for `COCCN(CC(=O)Nc1ccccc1C)S(=O)(=O)c1ccc(S(=O)(=O)N2CCCC2)cc1` was 4.32%; that for `Cn1c(=O)oc2cc(S(=O)(=O)NC3CCCCC3)ccc21` was 0.154%.
`Cc1nc(-c2ccc(F)cc2)c(CC(=O)N(C)CC(=O)Nc2ccc(F)cc2)s1`: the “hERG current change (%, negative = inhibition) at 10uM” value was 31.7%.
In the case of `COC(=O)c1c(C)[nH]c(C(=O)C(C)OC(=O)C2CC2C)c1C` (stereo not shown) it was 5.04%; in that of `CS(=O)(=O)Nc1nc2ccccc2[nH]1`, 1.9%.
In the case of `CN1CCN(c2nc(-c3ccc(Cl)c(Cl)c3)nc3ccccc23)CC1` it was 6.63%; in that of `CCOCC(=O)N1CCN(c2cccc(Cl)c2)CC1`, 8.4%.
The value for `CCN(Cc1ccccc1)C(=O)COC(=O)c1c(C)nsc1NC` was -6.97%; that for `O=C(NCCOC(=O)c1ccccc1)c1ccc([N+](=O)[O-])cc1` was -25.3%.
Regarding `CCCNS(=O)(=O)c1cc2c3c(c1)CCN3C(=O)CC2`, the “hERG current change (%, negative = inhibition) at 10uM” value was 4.73%.
The value for `Cn1c(=O)n(CCC(=O)O)c2ccccc21` was 5.85%.
In the case of `O=S(=O)(NCC1CCCO1)c1ccc(S(=O)(=O)N2CCCC2)cc1` (stereo not shown) it was 9.47%; in that of `O=C(N/N=C/c1ccccc1)C1CCCN1C(=O)c1cc([N+](=O)[O-])cc([N+](=O)[O-])c1` (stereo not shown), -10.4%; in that of `OC(CNCCc1c[nH]c2ccccc12)C(F)(F)F` (stereo not shown), 0.45%.
The value for `Cn1c(=O)[nH]c(=O)c2c1nc1n2CC(COc2ccc3ccccc3c2)O1` (stereo not shown) was -16.5%; that for `C=C(C)C1CC=C(C)/C(=N/NC(=O)c2ccc(NC(=O)c3cccc(C)c3)cc2)C1` (stereo not shown) was 13.8%.
Regarding `COc1ccc(S(=O)(=O)N2CCCC2)cc1C(C)C`, the “hERG current change (%, negative = inhibition) at 10uM” value worked out at 1.54%.
In the case of `Cc1cccc(NC(=O)c2ccc(S(=O)(=O)N3CCOCC3)cc2)n1` it was 19.5%.
In the case of `CNc1ccc(C(=O)OCC(=O)NCc2ccc3c(c2)OCO3)cc1[N+](=O)[O-]` it was -5.5%; in that of `CC1CC(C)CN(C(=O)Cn2cc(C=O)c3ccccc32)C1` (stereo not shown), -4.11%; in that of `O=C(O)CSCC(=O)N1CCCN(c2nccc(C(F)(F)F)n2)CC1`, 12.2%.
Regarding `COc1ccc(NC(=S)N(CCCN2CCOCC2)C(C)c2cc3ccccc3o2)cc1` (stereo not shown), the “hERG current change (%, negative = inhibition) at 10uM” value is -78.4%.
The value for `COc1ccc(OC)c(C2/C(=C(/O)c3ccccc3)C(=O)C(=O)N2Cc2ccco2)c1` (stereo not shown) was 19.7%.
Regarding `CCn1cc(/C=N/NC(=O)c2cc3c(ccc4ccccc43)o2)c2ccccc21`, the “hERG current change (%, negative = inhibition) at 10uM” value was 4.1%.
Take `O=C(NCCO)c1cccc(S(=O)(=O)N2CCCCC2)c1`: the “hERG current change (%, negative = inhibition) at 10uM” value is reported as 7.11%.
In the case of `CC(Sc1cccc[n+]1[O-])C(=O)Nc1cccc([N+](=O)[O-])c1` (stereo not shown) it was 19.7%; in that of `N#Cc1cccc(C(c2nnnn2C2CCCC2)N2CCC(Cc3ccccc3)CC2)c1` (stereo not shown), 8.5%.
The value for `O=C(CCC(=O)Nc1ccccc1)NCCO` was 6.11%; that for `O=C(CSc1nnc2ccc(-c3ccccn3)nn12)Nc1ccccc1` was 3.09%.
The value for `CCOc1ccc(NS(=O)(=O)c2ccc(NC(C)=O)c(OC)c2)cc1` was 0.524%; that for `O=C(NC12CC3CC(CC(C3)C1)C2)c1ccco1` was -4.38%.

The values above are taken from paper PMC4336329 (PLoS ONE, 2015).
